PubChem BioAssay AID1508642 (National Center for Advancing Translational Sciences (NCATS), 2021)
Hit rate of the full screen: of about 43,000 compounds, about 200 (0.47%) were called active. Inconclusive results (about 12%) are left out. Calls come from the whole dose curve; as a rule, active = well fitted cell-killing curve with a large enough effect; inconclusive = small, poorly fitted or top-dose-only effect, or effect the other way; inactive = flat fitted curve, though single readings scatter. Some of the results follow.

assay: Cell viability qHTS assay in S16 Pmp22-F2sN cells; details: S16 Pmp22-F2sN Schwann cells (luciferase reporters placed in the Pmp22 gene) viability, CellTiter-Glo, 24 h; series mostly up to 57.5 µM; activity change, negative = cytotoxicity: at the top concentration; note: nearly all actives have a fitted effect of over 65% in size
Outline: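 Luminescence from CellTiter-Glo, read by CCD camera after a 15 min room-temperature incubation, served as the viability signal. Reporter Schwann cells (S16 Pmp22-F2sN) had been treated with pin-transferred compounds for 24 h at 37C.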
% is set by controls: 0 for no effect and ±100 for the full control effect; potency is the fitted concentration of half-maximal effect.

Row | Compound | activity change, negative = cytotoxicity | Potency
1 | Cc1ccc(S(=O)(=O)c2cn(CC(=O)Nc3cccc(C)c3)c3cc4c(cc3c2=O)OCO4)cc1 | inactive: 3.1% | –
2 | CC1CCC(C(=O)NC(C(=O)OCC(=O)c2ccc(Br)cc2)C(C)C)CC1 (stereo not given) | inactive: -0.111% | –
3 | Cc1ccc(CNC(=O)c2nnc(Cc3ccc(Cl)cc3)o2)cc1 | inactive: -1.71% | –
4 | CN(C(=O)c1ccc2c(Cl)c3c(nc2c1)CCC3)c1ccccc1F | inactive: 5.25% | –
5 | CCN(CC)C(=O)Cn1c(=O)n(-c2ccccc2)c(=O)c2c3c(sc21)CCC3 | inactive: 13.1% | –
6 | Cc1ccccc1/C=C(\C#N)c1nc(-c2ccc(Cl)cc2)cs1 | inactive: 24.5% | –
7 | Cc1csc2nc(-c3ccc(NS(=O)(=O)c4cc(F)ccc4F)cc3)cn12 | inactive: 1.24% | –
8 | CCC(C)NC(=O)c1nn(-c2ccc(C)cc2)nc1CO (stereo not given) | inactive: 12% | –
9 | COc1ccc(OC(=O)c2nc(SCc3ccccc3F)ncc2Cl)cc1 | inactive: -0.991% | –
10 | Cc1ccc(NC(=O)Cn2c(=O)n(Cc3ccco3)c(=O)c3oc4ccccc4c32)cc1C | inactive: -1.66% | –
11 | Cc1cccc(CNC(=O)C2CCC(CNS(=O)(=O)c3ccc4c(c3)CCCC(=O)N4)CC2)c1 (stereo not given) | inactive: -24.1% | –
12 | O=C(Nc1ccc2nc(SCC(=O)N3CCOCC3)sc2c1)c1cccc(Br)c1 | inactive: -13.4% | –
13 | Cc1cccc(CN2C(=O)c3ccccc3Sc3ccc(C(=O)NC4CCCCC4)cc32)c1 | inactive: -6.13% | –
14 | CCC(=O)C1=C(c2ccc(F)cc2)N(C(=O)CC)n2c(nnc2-c2ccc(OC)cc2)S1 | inactive: -0.322% | –
15 | O=C(CSc1nccn1-c1cccc(Cl)c1)Nc1ccc2c(c1)OCO2 | inactive: 2.01% | –
16 | Cn1c(=O)oc2cc(S(=O)(=O)CCC(=O)N3CCN(c4ccccc4F)CC3)ccc21 | inactive: -10.1% | –
17 | O=C(CCn1c(=O)c2cccn2c2cccnc21)N1CCN(c2ccccc2)CC1 | inactive: 2.17% | –
18 | CCc1nn(CC(=O)N2CCN(c3ccc(OC)cc3)CC2)c(=O)c2cc3sccc3n12 | inactive: -16.3% | –
19 | O=C(CSc1nc(=O)[nH]c2c1CCC2)NCc1ccccc1Cl | inactive: 16.7% | –
20 | Cc1nc2ccccc2c(=O)n1-c1ccc(NC(=O)c2ccccc2[N+](=O)[O-])cc1 | inactive: -2.84% | –
21 | CCn1c(SCC(=O)Nc2ccccc2C(=O)OC)nc2ccsc2c1=O | inactive: 1.78% | –
22 | Cc1ccc(-c2cc(C(=O)Oc3ccc(C#N)cc3)no2)cc1 | inactive: -0.384% | –
23 | CCC(=O)NNc1ncnc2c1cnn2-c1ccc(C)c(Cl)c1 | inactive: 2.35% | –
24 | COc1ccc(C2CC(=O)Nc3c2c(=O)[nH]c2nc4ccccc4n32)cc1 (stereo not given) | inactive: 2.4% | –

Row | Compound | activity change, negative = cytotoxicity | Potency
25 | CCOc1cc(-c2ccc(OC(=O)c3ccccc3Cl)c(OC)c2)cc(=O)c2c(C)oc(C)c12 | inactive: 1.06% | –
26 | Cc1cccc(C)c1NC(=O)c1ccc2c(c1)nnn2C1CCCC1 | inactive: -15.2% | –
27 | COc1ccc(-c2nn3c(=O)cc(CN4CCN(C(=O)/C=C/c5ccccc5)CC4)nc3s2)cc1 | inactive: -15.9% | –
28 | CC(=O)c1ccc(N2CCN(S(=O)(=O)c3ccc(-c4coc(C)n4)cc3)CC2)cc1 | inactive: -3.48% | –
29 | CCn1cc(C(=O)Nc2cccc(Cl)c2)c2cc(OC)c(OC)cc2c1=O | inactive: -29.4% | –
30 | Cc1ccccc1COC(=O)c1nn(-c2ccccc2)nc1N | inactive: 4.49% | –
31 | COc1ccccc1N1CCN(C(=O)Cn2c(=O)n3nc(-c4cccc(F)c4)nc3c3ccccc32)CC1 | inactive: 1.03% | –
32 | CCCCN(CC)CCNC(=O)C1CCN(S(=O)(=O)c2cccc3nsnc23)CC1 | inactive: 2.31% | –
33 | Cc1nn(CC(=O)NC2CCC(C)CC2)c(=O)c2c1sc1ccccc12 (stereo not given) | inactive: 4.09% | –
34 | Cc1ccc2oc(-c3ccc(NC(=O)CCC(=O)O)cc3)nc2c1 | inactive: 5.44% | –
35 | Cc1ccc(NC(=O)CCc2c(C)nc3c(-c4ccc(F)cc4)c(C)nn3c2C)cc1F | inactive: 0.576% | –
36 | COc1cc(NC(=O)CN2CCN(c3ccc(F)cc3)CC2)cc(OC)c1 | inactive: 0.801% | –
37 | CCOc1ccc(NC(=O)c2sc3nc4n(c(=O)c3c2C)CCC4)cc1 | inactive: 0.338% | –
38 | COC(=O)N1CCCc2cc(S(=O)(=O)NCc3ccccc3)ccc21 | inactive: 0.767% | –
39 | Cc1ccc(C)c(Nc2cc(C(=O)NC3CCCC3)c3ccccc3n2)c1 | inactive: 7% | –
40 | COc1ccc(NC(=O)CC2C(=O)N(c3ccc(OC)cc3)C(=O)N2CCC2=CCCCC2)cc1 (stereo not given) | inactive: -2.18% | –
41 | COc1ccc(CCNC(=O)Cc2c(C)c3cc4c(C(C)(C)C)coc4c(C)c3oc2=O)cc1 | inactive: 2.08% | –
42 | COc1cc(NC(=O)CSc2nc3ncccc3o2)cc(OC)c1 | inactive: 5.36% | –
43 | CCC(C(=O)Nc1ccc(C)c(C)c1)n1c(=O)c(C(F)(F)F)nc2ccccc21 (stereo not given) | inactive: 20.6% | –
44 | Cc1ccc(CNC(=O)CCCn2c(=O)c3ccccc3n(CC(=O)Nc3ccc(C)cc3)c2=O)cc1 | inactive: 3.09% | –
45 | COc1ccc(-c2nc(CS(=O)(=O)CC(=O)NCc3ccccc3Br)c(C)o2)cc1 | inactive: 13.6% | –
46 | O=C(NCCCN1CCCCCC1)c1ccc2c(c1)sc1nc(-c3ccccc3)cn12 | inactive: 2.38% | –
47 | COc1cccc(NC(=O)Cn2c(=O)n(CCC(=O)NCCc3ccc(Cl)cc3)c(=O)c3ccccc32)c1 | inactive: 17.7% | –
48 | CCOC(=O)c1c(NC(=O)COc2ccc(Cl)cc2C)sc2c1CCCCC2 | inactive: 3.55% | –

Row | Compound | activity change, negative = cytotoxicity | Potency
49 | Cc1ccc(CNC(=O)CS(=O)(=O)c2cccc3nsnc23)cc1 | inactive: 6.44% | –
50 | CCOc1ccc(N2CC(c3nc4ccccc4n3CCOc3ccccc3OC)CC2=O)cc1 (stereo not given) | inactive: -35.5% | –
51 | O=C1CC(c2nc(-c3ccccc3)no2)CN1c1ccccc1 (stereo not given) | inactive: 6.91% | –
52 | CCc1nc2ccc(C(=O)NCc3cc(OC)ccc3OC)cc2nc1CC | inactive: -6.77% | –
53 | Cc1ccc(-c2nc3ncccn3c2Nc2ccc3c(c2)OCCO3)cc1 | inactive: 8.42% | –
54 | CCc1ccc(CNc2ccc3c(c2)ncn3C(C)(C)C)cc1 | inactive: -11.5% | –
55 | O=C(CCS(=O)(=O)c1ccc(Br)cc1)Nc1ccc(F)cc1F | inactive: -3.11% | –
56 | COc1cccc2c1cc1c(=O)n(CC(=O)N3CCN(c4ccccc4)CC3)nc(C)n12 | inactive: -1.19% | –
57 | Cc1cc(OC(C)C(=O)Nc2cccc(-c3nc4ccccc4o3)c2)cc(C)c1Cl (stereo not given) | inactive: 12% | –
58 | COc1ccc(-c2nc(CSCC(=O)N3CCN(c4cc(Cl)ccc4C)CC3)c(C)o2)cc1 | inactive: -17% | –
59 | Cc1ccc(Cn2c(C)c3cnn(CC(=O)NCc4ccccc4)c(=O)c3c2C)cc1 | inactive: -17.9% | –
60 | CC(=O)N1CCc2cc(S(=O)(=O)CCC(=O)Nc3ccc(C)cc3Br)ccc21 | inactive: -1.43% | –
61 | CCOc1ccc(CCNC(=O)CS(=O)(=O)Cc2nc(-c3ccc(OC)cc3)oc2C)cc1 | inactive: 1.83% | –
62 | Cc1cccc2sc(N(CCN(C)C)C(=O)c3ccc4c(c3)OCCO4)nc12 | inactive: -5.93% | –
63 | COc1ccc(Cn2c(=O)n(Cc3ccco3)c(=O)c3oc4ccccc4c32)cc1 | inactive: 1.58% | –
64 | CCn1c(=N)c(C(=O)NCc2ccccc2)cc2c(=O)n3cccc(C)c3nc21 | inactive: 5.84% | –
65 | Cc1cccc(-c2nc(C)c(CCNC(=O)C(=O)Nc3ccccc3C#N)s2)c1 | inactive: 27.2% | –
66 | CC(C)c1ccc(C2NC(=O)c3n[nH]c(-c4cccs4)c32)cc1 (stereo not given) | inactive: -21.2% | –
67 | COc1ccc(Cl)cc1S(=O)(=O)NCc1ccc2c(c1)CCN2C(=O)c1cccc(C)c1 | – | active: 14.1 µM
68 | Cc1cccc(NC(=O)CSc2nc(-c3ccccc3)cc(=O)[nH]2)c1C | inactive: -0.22% | –
69 | Cc1ccc(C(C)C)c(OCC(O)CN2CCN(c3ccccc3F)CC2)c1 (stereo not given) | inactive: 1.92% | –
70 | Cc1ccc(NC(=O)CCC(=O)N2Cc3ccccc3Oc3ncccc32)c(C)c1 | inactive: -16.8% | –
71 | CCOc1ccc(CCNC(=O)CN2C(=O)COc3ccc(S(=O)(=O)N4CCCC4)cc32)cc1 | inactive: 4.18% | –
72 | CCOC(=O)C1CCCN(C(=O)c2ccc3c(c2)sc2nc(-c4ccc(CC)cc4)cn23)C1 (stereo not given) | inactive: -24% | –

Row | Compound | activity change, negative = cytotoxicity | Potency
73 | Cc1ccc(CNC(=O)C(C)n2nc(C)n3c(cc4sccc43)c2=O)cc1 (stereo not given) | inactive: 4% | –
74 | COc1ccccc1C(=O)Nc1cccc(C(=O)OCc2cc(=O)n3ccsc3n2)c1 | inactive: 2.26% | –
75 | Cc1ccc(S(=O)(=O)N(CC(=O)Nc2ccc(Cl)cc2Cl)c2ccccc2C)cc1 | inactive: 0.651% | –
76 | CCOC(=O)c1ccc(N2C(=O)c3n[nH]c(-c4ccco4)c3C2c2cccc(OC)c2)cc1 (stereo not given) | inactive: -15.1% | –
77 | COC(=O)c1ccc2c(=O)n(CCCCCC(=O)NCCc3ccc(Cl)cc3)c(=O)[nH]c2c1 | inactive: 2.13% | –
78 | Cc1oc(-c2ccc(C(=O)NCc3cccc(F)c3)cc2)nc1COc1ccccc1 | inactive: 15% | –
79 | N#Cc1c(C(F)(F)F)cc(-c2ccc(F)cc2)nc1SCC(=O)Nc1ccccc1 | inactive: -3.61% | –
80 | CCn1c(C(=O)N2CCC(C(=O)NCCc3ccc(C)cc3)CC2)cc2sccc21 | inactive: -4.94% | –
81 | Cc1ccc(Cn2ccnc2SCC(=O)NCc2ccccc2Cl)cc1 | inactive: 13.9% | –
82 | O=C1c2[nH]nc(-c3ccccc3O)c2C(c2ccc(Cl)cc2)N1Cc1ccco1 (stereo not given) | inactive: -24.6% | –
83 | CCN1CCN(C(=O)c2cnn(-c3ccc(F)cc3)c2-n2cccc2)CC1 | inactive: -4.43% | –
84 | Cc1ccc(C2C=C(c3ccc(Cl)cc3)Nc3nc(NS(=O)(=O)c4ccccc4)nn32)cc1 (stereo not given) | inactive: -3.52% | –
85 | COc1ccccc1NC(=O)Cn1c(=O)n(-c2cccc(C(C)=O)c2)c(=O)c2c3c(sc21)CN(C(C)=O)CC3 | inactive: 0.309% | –
86 | Cc1ccc(CNC(=O)CCCCn2c(=O)c3ccccc3n(Cc3c(C)cc(C)cc3C)c2=O)cc1 | inactive: -0.11% | –
87 | COc1cccc(NC(=O)CSC2=Nc3ccccc3C3=NC(CC(=O)NCCc4ccccc4)C(=O)N23)c1 (stereo not given) | inactive: -0.774% | –
88 | CCOC(=O)c1ccccc1NC(=O)Cn1c(=O)n(Cc2nc(-c3ccccc3)no2)c(=O)c2ccccc21 | inactive: -4.88% | –
89 | COc1ccccc1N1CCN(C(=O)Cn2ncc3c([nH]c4ccccc43)c2=O)CC1 | inactive: 16.3% | –
90 | O=C(CCc1nc(CN2CCN(S(=O)(=O)c3ccc(F)cc3)CC2)no1)N1CCCCC1 | inactive: -2.66% | –
91 | CCc1ccc(-n2c(SCc3ccccc3F)nc3[nH]ncc3c2=O)cc1 | inactive: -25% | –
92 | O=C(c1ccc2c(c1)N(Cc1ccccc1F)C(=O)c1ccccc1S2(=O)=O)N1CCCCC1 | inactive: 21.2% | –
93 | COc1cccc(NC(=O)CSC2=Nc3ccccc3N=C(c3ccc(F)cc3)C2)c1 | inactive: -17.3% | –
94 | CCc1ccc(C(=O)c2cn(CC(=O)NCCc3ccc(OC)c(OC)c3)c3nc(C)ccc3c2=O)cc1 | inactive: 7.04% | –
95 | COc1ccc(OC)c(S(=O)(=O)N2CCC(c3ccncc3)CC2)c1 | inactive: 3.02% | –
